Reference: the RNAGym collection of RNA variant scans (doi:10.1093/nar/gkz1192)
Read counts are not given, so values of variants with three or more changes are uncertain.

B1: CPEB3 Ribozyme (parent)
chain: UAACAGGGGGCCACAGCAGAAGCGUUCACGUCGCAGCCCCUGUCAGAUUCUGGUGAAUCUGCGAAUUCUGCUGUAUAUCUC

Variants of: B1
Assay: self-cleavage, relative activity (ratio to wild type); higher = more cleavage; in vitro, sequencing
Method in brief: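 Relative activity compares each variant's cleaved/total read fraction with that of the unmutated ribozyme. To get these fractions, barcoded CPEB3 ribozyme libraries from rounds of error-prone PCR were transcribed with T7 RNA polymerase for 5 hours at 37°C and then given 15 min of DNase I treatment before EDTA was added. The RNAs were reverse transcribed with template switching and sequenced on Illumina, and DNA sequencing linked barcodes to variants. A minimum of 5 reads applied, and three batches were averaged.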
A3G A18U U48C showed a self-cleavage of 0.33. For A3G A20G A35G, the self-cleavage was 1.16. In the case of A3G A18U U25C A47G U67A A75U, the self-cleavage is reported as 0.06. A3G A18G U43G showed a self-cleavage of 0.75. With A3G A21G C29U U54C G73U the self-cleavage was 0.5. With A3G C17U A56C U72C the self-cleavage was 0.14. Variant A3G A21U U31C C40A A64G has a self-cleavage of 0.61. A3G A15U C37A U41C A56C A64U U72A gave a self-cleavage of 0.08. A3G A20G A35G U80A showed a self-cleavage of 1.32. Work on A3G A45U U72C yielded a self-cleavage of 0.45. With A3G A47G U60C U76C the self-cleavage was 0.59. In the case of A3G A28U C34U C62U U67C, the self-cleavage is reported as 0.15. Variant A3G A15G U25A U67C has a self-cleavage of 0.35. For A3G C12A A15G C23G A57G, the self-cleavage was 0.54. Work on A3G A45G U54A yielded a self-cleavage of 0.87. Work on A3G A20G U26C A35G U78C yielded a self-cleavage of 0.94. With A3G A35U U51A U60A the self-cleavage was 0.36. For A3G C23U C37A, the self-cleavage was 0.08. A3G A57U U60C U76A gave a self-cleavage of 0.32. With A3G A20U U69A the self-cleavage was 0.21. Variant A3G A15G C29U U41C U54C A77G U80C has a self-cleavage of 0.26. Work on A3G A20U U31G A65G U69C A77U yielded a self-cleavage of 0.08. Work on A3G A18U A20G A28G G30A C32A U69A yielded a self-cleavage of 0.26. In the case of A3G C4U U67C U69C, the self-cleavage is reported as 0.3. A3G A45G U49C gave a self-cleavage of 0.4. Variant A3G A15G C81U has a self-cleavage of 1.09. Variant A3G C23U A28G U31A A57G A65G U80C has a self-cleavage of 0.09. A3G A15U U72A gave a self-cleavage of 0.87. A3G A18G A45G U60A G73A gave a self-cleavage of 0.42. A3G A47C U49C U67A A77G gave a self-cleavage of 0.07. A3G A21C U41G U48C U54A U60C showed a self-cleavage of 0. For A3G C23A A45G U72C A77G, the self-cleavage was 0.26. For A3G C23U U41A U48C, the self-cleavage was 0.12. Work on A3G A28U U51A G52C G63U A77G yielded a self-cleavage of 1.04. Variant A3G A20G U48C U54A U78C has a self-cleavage of 0.69. A3G A15G G19C U25C U60C showed a self-cleavage of 0.05. Variant A3G C11G A15G G36C U67G has a self-cleavage of 0.23. For A3G A21G U67C U69C, the self-cleavage was 0.29. Work on A3G A21G A35U A56U U67C U76C yielded a self-cleavage of 0.09. Work on A3G A18C U76A yielded a self-cleavage of 0.47. A3G A28G C44G A45G U66C U78A showed a self-cleavage of 0.04. For A3G C23A G33A, the self-cleavage was 0.31. A3G A15G U41A C44A U72A A77G gave a self-cleavage of 0.19. A3G A15U G19U U43C U51A A64G U72C gave a self-cleavage of 0.22. A3G C27U U41C U67C G70A gave a self-cleavage of 0.06. In the case of A3G C11G U25C G30A A35G, the self-cleavage is reported as 0.33. In the case of A3G A45G U54C C81U, the self-cleavage is reported as 1.01. A3G A35G A45G U76C U80C showed a self-cleavage of 1.22. With A3G C27A U48C the self-cleavage was 0.06. In the case of A3G C12U U25A U31C U48C C50U U72C, the self-cleavage is reported as 0.13. Variant A3G C4G U31C A45G A64G has a self-cleavage of 0.3. Work on A3G A20U A35G A47G yielded a self-cleavage of 0.69. Work on A3G C29U C62G U72A yielded a self-cleavage of 0.15. With A3G A64U U66C the self-cleavage was 0.25. With A3G C29U U49C U69C U80C the self-cleavage was 0.07. For A3G C29A G53A, the self-cleavage was 0.4. Work on A3G C23U U25C U72C U78A yielded a self-cleavage of 0.14. In the case of A3G A35U U60A U67C, the self-cleavage is reported as 0.17. For A3G C11A U31C A45U, the self-cleavage was 0.07. In the case of A3G A20G C29G A65G, the self-cleavage is reported as 0.13. A3G C32U U41C A57G showed a self-cleavage of 0.19. For A3G A15U U41A C50A A56G, the self-cleavage was 0.07. Variant A3G C27A U41A U43A has a self-cleavage of 0.33. In the case of A3G A20G U25A G63A, the self-cleavage is reported as 0.31. A3G C29U A57C U74C gave a self-cleavage of 0.74. For A3G A35G U41A A45U A65G, the self-cleavage was 0.19. With A3G A47G U49C the self-cleavage was 0.37. Work on A3G A15G U51C U66A yielded a self-cleavage of 0.56. Work on A3G A15U A18U A20U C29U G70C U76C yielded a self-cleavage of 0.18. Work on A3G A35G U48C U76A yielded a self-cleavage of 1.26. Work on A3G C23U A35G U49A yielded a self-cleavage of 0.53. A3G A15U U41A A45G A65G U72C showed a self-cleavage of 0.15. A3G C11G A35U G52C U60A U69C U78C gave a self-cleavage of 0.08. With A3G A47U U48C U60C U69C the self-cleavage was 0.27. Variant A3G A20U U67C has a self-cleavage of 0.13. Variant A3G A20G A28G U48C has a self-cleavage of 0.42. For A3G A64U A77G, the self-cleavage was 0.38. A3G A15G U26C G30U C50A A57C showed a self-cleavage of 0.21. A3G A15U U54C A56U showed a self-cleavage of 0.38. A3G A21C U67C U78C gave a self-cleavage of 0.07. A3G C32A U48G U49C C59U showed a self-cleavage of 0.09. In the case of A3G A15U A64G A65G C68U U69A U74C, the self-cleavage is reported as 0.06. For A3G C11G A13G U25C U31A, the self-cleavage was 0.71. A3G A35U A65G U72C showed a self-cleavage of 0.18. A3G A21G A35G U60A A64U U72C showed a self-cleavage of 0.47. For A3G A15U U31G U41C U43A A45G, the self-cleavage was 0.14. With A3G A21G A35U the self-cleavage was 0.42. Work on A3G A21G A77G U78C yielded a self-cleavage of 0.35. With A3G A28U U41A U48G A56U the self-cleavage was 0.11. Variant A3G A65G U76A has a self-cleavage of 0.29. With A3G C29U A47U G61A U74A the self-cleavage was 0.36. A3G C4G A15U U26C G36A U54C U60C gave a self-cleavage of 0.3. In the case of A3G A45U U49A U51C, the self-cleavage is reported as 0.14. Work on A3G A18G G73A yielded a self-cleavage of 0.81. Variant A3G A21U A45G U72A U78C has a self-cleavage of 0.05. A3G C27U G52A U76C showed a self-cleavage of 0.15. With A3G A18U C50U the self-cleavage was 0.54. In the case of A3G A18G A65U U80C, the self-cleavage is reported as 0.36. A3G C32U A45G A47G U80C showed a self-cleavage of 0.33. A3G A20G U51C A57C U72A gave a self-cleavage of 0.11. In the case of A3G A21G U26A U43A U54C, the self-cleavage is reported as 0.09. A3G A18U U26C A65G showed a self-cleavage of 0.42. For A3G A35U U41A U60C U80A, the self-cleavage was 0.06. For A3G A15U C23A U41A U43C U54C U67C, the self-cleavage was 0.07. A3G C12G A15G U25C A28G G52A A65G showed a self-cleavage of 0.17. For A3G C4G A15G A20U A47G U58C C81U, the self-cleavage was 0.21. A3G A15U U54G gave a self-cleavage of 0.79. With A3G C23U U31C A35G U41C U51A U72G the self-cleavage was 0.18. For A3G A20G G55A A65G U72A, the self-cleavage was 0.21. With A3G A21U U41A U67C U78A the self-cleavage was 0.03. With A3G A20G U72A the self-cleavage was 0.42. For A3G A21G A47G, the self-cleavage was 0.6. In the case of A3G A56G C62U U66C U69A U72C, the self-cleavage is reported as 0.4. With A3G A20U U25A U60C the self-cleavage was 0.11. In the case of A3G C14U U25C A35G, the self-cleavage is reported as 0.83. Work on A3G A18G A65U U72C U76C yielded a self-cleavage of 0.38. Variant A3G A18G U26A U51C has a self-cleavage of 0.47. In the case of A3G A47G U58C A64U, the self-cleavage is reported as 0.48. In the case of A3G A57U A65G U76C, the self-cleavage is reported as 0.12. Variant A3G A20G A35C A56U A65U has a self-cleavage of 0.12. A3G C17U U26C U54C U72C showed a self-cleavage of 0.35. A3G C11G A18U A21G A56U A64U showed a self-cleavage of 0.06. Work on A3G A47C U49C G55C U69A yielded a self-cleavage of 0.22. A3G A21G U41A U51A G63A A64G gave a self-cleavage of 0.07. For A3G A20G G55A A57G, the self-cleavage was 0.53. With A3G A28G U60C the self-cleavage was 0.43. A3G C14U U25A U26A C34A U48C U72C showed a self-cleavage of 0.06. With A3G A18G G42A the self-cleavage was 0.6. A3G A18G U41C U51A U58A U60A showed a self-cleavage of 0.57. With A3G A35U U48C U54A U69C U80G the self-cleavage was 0.15. In the case of A3G C14U U51C A64G, the self-cleavage is reported as 0.9. For A3G A20G A21G C32U A57G G63A U72C, the self-cleavage was 0.07. In the case of A3G A20G C23U U31C U54C, the self-cleavage is reported as 0.34. For A3G A45G U48C A64G, the self-cleavage was 0.41. In the case of A3G A18U A45G A64G U67C C81A, the self-cleavage is reported as 0.35. Variant A3G A20C U26C U58A has a self-cleavage of 0.28. Work on A3G A15U U41C A56C U72A yielded a self-cleavage of 0.23. A3G C12G A13U G19C U31C A35G U69C gave a self-cleavage of 0.26. With A3G A18G U31C U67G U80A the self-cleavage was 0.14. Variant A3G A21U A35U U49A U54C A64G has a self-cleavage of 0.06. For A3G A15U A20C, the self-cleavage was 0.11. A3G A47U U72C U76C showed a self-cleavage of 0.33. A3G A20G C23A U54C C68U U74A gave a self-cleavage of 0.06. In the case of A3G A45U G53C, the self-cleavage is reported as 0.6. Variant A3G A35G A47G U60C has a self-cleavage of 0.47. Work on A3G A18U G30U A35G C62U U72A yielded a self-cleavage of 0.12. A3G A20G U49A A64G showed a self-cleavage of 0.43. For A3G A35U U41C, the self-cleavage was 0.66. A3G A20C U26C U48G U78A gave a self-cleavage of 0.57. For A3G A35G U72C, the self-cleavage was 1.25. A3G A28G U31C U49A A56G A57U showed a self-cleavage of 0.3. With A3G A18G U69C U78C the self-cleavage was 1.13. A3G C4G A5G gave a self-cleavage of 0.7. Work on A3G A15U A47G G53A A57G A75G yielded a self-cleavage of 0.57. For A3G C29G A45G U80A, the self-cleavage was 0.44. For A3G A18G U51C A56G U58C U80A, the self-cleavage was 0.09. Variant A3G A18G A35C U48C U49C U72A has a self-cleavage of 0.12. With A3G A20U A47G U67C the self-cleavage was 0.29. Variant A3G A18C C27A has a self-cleavage of 0.39. A3G A28G U67C showed a self-cleavage of 0.24. A3G A35G G61C showed a self-cleavage of 1.02. With A3G A35G G36U A45U U51A U69C the self-cleavage was 0.16. Work on A3G A21G U25C C34U U49C C50A yielded a self-cleavage of 0.09. A3G A21C U31C C32U U48C gave a self-cleavage of 0.11. For A3G A28C U31C U66C, the self-cleavage was 0.48. Variant A3G A18G C40G A47U U66C U69C has a self-cleavage of 0.35. Variant A3G C29U U67G U69A has a self-cleavage of 0.22.
